# Data as given in patent US7326684B2, “Peptides for enhancing resistance to microbial infections” (priority 2002, dated 2008).
# System: S. typhimurium
# Type: cell-based, Salmonella typhimurium
row,Substance,Influence on viability and growth of S. typhimurium
1,"H-VKGFY-OH [Pentarphin, Val-Lys-Gly-Phe-Tyr]",do not influence viability and growth
2,cyclo(Val-Lys-Gly-Phe-Tyr) (VKGFY; cyclic; printed: Val-Lys-Gly-Phe-Tyr) [Cyclopentarphin],do not influence viability and growth
